The text below walks through data of ChEMBL document CHEMBL4888484, “Replenishing the malaria drug discovery pipeline: Screening and hit evaluation of the MMV Hit Generation Library 1 (HGL1) against asexual blood stage Plasmodium falciparum ,using a nano luciferase reporter read-out” (2022).

Structures are written as SMILES. Among all 150,000 compounds or so, about 540 (0.36%) showed an effect of 50% or more. This is one part of the list.

This assay deals with Plasmodium falciparum. The experiment in a line: Primary screen in NF54 nanoGlo assay, in single point, at 2uM, 72h; a lower Z score goes with more inhibition. The class given is functional, Erythrocyte. To be noted: timepoint 72 hour.
Turning to `CCn1nccc1[C@@H]1CCCN1C(=O)Nc1ccc(C)c(Cl)c1`, the “% Inhibition” value is reported as 2% and the Z score was -0.4.

With `O[C@H]1CCN(c2cc(-c3ccccc3)nc3ncnn23)C1`, the “% Inhibition” value is reported as -10% and the Z score stood at 1.69.

On to `O=C(C1CCOCC1)N1CC(N2CCCC2)C1`, for which the “% Inhibition” value is -9% and the Z score is 1.18.

For `N#Cc1cccnc1NC1CC(Cl)(Cl)C1`, the “% Inhibition” value is recorded as -1% and the Z score is recorded as 0.14.

Consider `CC(C)S(=O)(=O)NC(=O)c1cn(C)nc1C1CC1`, for which the “% Inhibition” value came out at 0% and the Z score amounted to 0.05.

In the case of `Cc1noc(C)c1CN1CCC[C@H](N(CCN2CCCC2)C(=O)C2CCC2)C1`, the “% Inhibition” value was determined as 5% and the Z score is given as -0.67.

On to `CC(C)n1cc(Br)cc1C(=O)N1CCc2[nH]ncc2C1`, for which the “% Inhibition” value is listed as -15% and the Z score is reported as 1.49.

For `CN(C)c1ccc(C(=O)N[C@H]2CCCN(CCCc3ccccc3)C2)cc1`, the “% Inhibition” value is on record as -11% and the Z score is 1.64.

Consider `Cc1ccsc1C(=O)Nc1ccc2c(c1)OCCO2`, for which the “% Inhibition” value is given as -8% and the Z score was found to be 0.95.

Regarding `CC(NC(=O)C1Cc2ccccc2O1)C1(N2CCOCC2)CCCC1` (stereo not drawn), the “% Inhibition” value was -20% and the Z score is reported as 1.77.

Regarding `CCN1CCCC[C@@H]1CNCc1[nH]c2ccccc2c1Cl`, the “% Inhibition” value is recorded as -12% and the Z score is 1.16.

Regarding `FC(F)(F)c1cnc(-c2csc(NC3CCCCC3)n2)c(Cl)c1`, the “% Inhibition” value was 41% and the Z score was -5.29.

Consider `COc1cccc(C(=O)N(Cc2ccc(-c3cccc(C(F)(F)F)c3)o2)[C@H]2CCS(=O)(=O)C2)c1`, for which the “% Inhibition” value is -13% and the Z score is listed as 1.64.

For `CN(CCCNC(=O)[C@@H](c1cccc(F)c1)N1CCOCC1)c1ccccc1`, the “% Inhibition” value worked out at 14% and the Z score is reported as -1.88.

Regarding `COc1cc(C(=O)N2CCN(c3ccccc3)CC2)cc2occc12`, the “% Inhibition” value turned out to be 32% and the Z score is recorded as -0.6.

For the compound `O=C(Nc1nc(C(=O)Nc2cccc3nsnc23)co1)c1ccsc1`, the “% Inhibition” value is listed as 7% and the Z score is -0.99.

With `O=C(Cn1nnc(C2CC2)n1)C1CCOCC1`, the “% Inhibition” value is -7% and the Z score is recorded as 1.03.

Regarding `COc1ccc(OCc2nc(C(=O)N[C@H]3CC[C@H](O)CC3)co2)cc1`, the “% Inhibition” value was -11% and the Z score is 1.82.

Regarding `Cc1sc(C(=O)N2CCOCC2)c(NC(=O)c2ccccc2)c1C`, the “% Inhibition” value is given as -34% and the Z score was 4.02.

For the compound `COC[C@@H]1CN(S(=O)(=O)Cc2ccccc2)C[C@H]1C(N)=O`, the “% Inhibition” value was determined as 3% and the Z score is reported as -0.39.

With `O=C(c1ccccc1F)N1CCC[C@H](OCc2ccc(F)c(F)c2)C1`, the “% Inhibition” value is on record as -7% and the Z score was 1.05.

Regarding `O=C(O)c1c(S(=O)(=O)N[C@H]2C[C@@H]3CC[C@H]2C3)sc2c1CCNC2`, the “% Inhibition” value was -8% and the Z score was 1.78.

In the case of `O=C(CC1(CC(=O)NC2CC2)CCCCC1)Nc1nccs1`, the “% Inhibition” value is -14% and the Z score came to 2.17.

For `Cc1nnsc1CN1CC[C@H](NC(=O)c2ccccc2)[C@@H](O)C1`, the “% Inhibition” value is reported as -6% and the Z score was determined as 1.08.
